The labels stand for the following.
B1: LINE1-mini (parent)
chain: GGCAGAGCUCAACACAGCGUGGCAAAGUGGCUGUGGCUAGACUGCC

The source gives no read counts; variants with many changes may rest on few reads.

The series covers variants of B1. Briefly: self-cleavage, relative activity (ratio to wild type); higher = more cleavage; in vitro, sequencing; the parent is a self-cleaving ribozyme.
Regarding G27A G30U G40C, the self-cleavage amounted to 0.27.

As for A26G G33U C45A, the self-cleavage is 0.09.

Take A25G U34A C46G: the self-cleavage stood at 0.06.

As to A26U G30C G44U, the self-cleavage came out at 0.66.

For A25G G35U A39G, the self-cleavage worked out at 0.

Take A26U G30U U34C C42A: the self-cleavage amounted to 0.29.

As to A26C U28A U32G G33U, the self-cleavage was 0.03.

As for G27C A41U U43C, the self-cleavage worked out at 0.06.

On to A25U A26C A39G, for which the self-cleavage turned out to be 0.06.

In the case of A25U A26U G33U, the self-cleavage was 0.06.

For A25G U38C A41G, the self-cleavage worked out at 0.03.

In the case of A25U G30U G35U, the self-cleavage turned out to be 0.05.

Turning to A25U G27A G33A C46A, the self-cleavage is 0.07.

As to A26G C31A U34A G40C, the self-cleavage was determined as 0.1.

In the case of A25U G30A G33U G44U, the self-cleavage turned out to be 0.04.

For the variant A25U G35U C42A, the self-cleavage was 0.11.

A26C G29A U32A: the self-cleavage was found to be 0.09.

As for A26C U38A C46G, the self-cleavage is 0.06.

Take G27C G30A G40U C46U: the self-cleavage was determined as 0.14.

Consider A26C U32G U34C C46A, for which the self-cleavage turned out to be 0.03.

Turning to A26C G30A U43A, the self-cleavage amounted to 0.12.

Take A26C C31G A41G C45U: the self-cleavage was 0.01.

With G27C C31U C46G, the self-cleavage was found to be 0.04.

Regarding A26U G36U C46A, the self-cleavage was 0.08.

In the case of A25U G27A G30U, the self-cleavage is 1.39.

Turning to G27A A39C G40A A41U, the self-cleavage was found to be 0.24.

As to G27C U28A U34A C42A, the self-cleavage stood at 0.01.

For A26G G33U A41C C42G, the self-cleavage stood at 0.03.

Consider A25U A26G A39U, for which the self-cleavage was 0.09.

For the variant A26G C31G C42G, the self-cleavage came to 0.04.

As for A26U C31U C45U, the self-cleavage stood at 0.09.

As for G27A G33C G40U, the self-cleavage turned out to be 0.05.

In the case of G27C G33A C42A, the self-cleavage worked out at 0.08.

Regarding G27C C31A G40U, the self-cleavage is 0.03.

With A25U G27U G33C, the self-cleavage came to 0.08.

For the variant A26U U32G C37A, the self-cleavage is 0.04.

As for A25G G35U A41G C42G C45A, the self-cleavage is 0.13.

For the variant A26C G27C C37A A41C, the self-cleavage was determined as 0.01.

Take G27A U28C A41U: the self-cleavage turned out to be 1.62.

In the case of A26U C37U G44U C45A, the self-cleavage was determined as 0.02.

Take G27A C37A A41U: the self-cleavage is 0.1.

With A26C U34G C45U, the self-cleavage came to 0.51.

In the case of A25U G30A U32C G44C, the self-cleavage was 0.03.

Consider A26U G36A C46A, for which the self-cleavage was determined as 0.23.

On to G27C G29U G40A, for which the self-cleavage amounted to 0.03.

As to A26G U32A C45A, the self-cleavage was determined as 0.01.

For A26U A39G G40U A41C, the self-cleavage was 0.11.

For the variant A26C C31U A41G, the self-cleavage is 0.04.

With A25U A39G C42A, the self-cleavage came to 0.04.

As to A25G U34C A39C, the self-cleavage was determined as 0.08.

In the case of A26G C42A U43A, the self-cleavage turned out to be 0.03.

Turning to A26U G27A C45A, the self-cleavage is 0.35.

Take G27A U28C G40A U43A: the self-cleavage is 0.03.

G27C G36C A41C: the self-cleavage was 0.05.

On to A25U A26U U28A G40A, for which the self-cleavage was determined as 0.01.

For the variant A25U G30U C42A C45A, the self-cleavage was determined as 0.03.

In the case of G27C C31A G40A C45A C46G, the self-cleavage came to 0.07.

Turning to G27C G30C C31G, the self-cleavage came to 0.08.

As for G27C U32G G40U, the self-cleavage is 0.11.

Take A26C G33A C42G G44A: the self-cleavage was found to be 0.09.

As for A25U G30A U38G, the self-cleavage turned out to be 0.03.

In the case of A25U G29U C46A, the self-cleavage was determined as 0.92.

With G27C C31G U32A U34G, the self-cleavage was 0.02.

As for A25U A26G G29C, the self-cleavage came out at 0.24.

As to A26G G27A C31U, the self-cleavage was 0.62.

Regarding G27C G30C C37G A39G G40U, the self-cleavage is 0.03.

A25U C42A G44A: the self-cleavage worked out at 0.52.

With G27C G33A C46U, the self-cleavage was 0.07.

Turning to A25U G36U A41C, the self-cleavage is 0.02.

As for A26G C37A C46A, the self-cleavage was 0.06.

With A25U G33C G44U, the self-cleavage stood at 0.02.

As for A26C G27C G35U G36A, the self-cleavage amounted to 0.1.

A25U G29C G33U C46U: the self-cleavage was 0.33.

On to G27A C31G U32G, for which the self-cleavage was found to be 0.04.

For G27C C37G G40A, the self-cleavage was 0.03.

As to A25U G30C C37G A41U, the self-cleavage amounted to 0.05.

Take G27C C37A U43G: the self-cleavage was found to be 0.21.

Regarding A26G C31A U43C, the self-cleavage is 0.02.

As for A25U G44U C45U, the self-cleavage was 0.07.

Take G27A G33U G35A C45U: the self-cleavage worked out at 0.04.

With A26U G27U G29U G44A, the self-cleavage came out at 0.52.

On to G27C G30U G35U G36C, for which the self-cleavage was determined as 0.12.

In the case of A26U G30C C31U, the self-cleavage was 0.26.

Regarding A26G G33A U38A C46G, the self-cleavage is 0.03.

With G27A C37U A39G, the self-cleavage was 0.01.

Turning to A26G G33U A39C C45G, the self-cleavage amounted to 0.03.

With G27A G36U U38A A41G, the self-cleavage was 0.01.

Take G27C C31U G44A C46G: the self-cleavage was found to be 0.

For the variant A26G G30C C31A, the self-cleavage is 0.13.

In the case of A25U G27C C45U, the self-cleavage was 0.16.

In the case of A25U G29U G40U, the self-cleavage was found to be 0.87.

As to A26C A39U C46A, the self-cleavage stood at 0.23.

As to G27A C31A G36U, the self-cleavage came out at 0.08.

Turning to A26C G30C C31G, the self-cleavage was found to be 0.09.

Consider A26U U38G G40A, for which the self-cleavage came out at 0.12.

With A26U G35U C46A, the self-cleavage was 0.11.

For A26G G29C C46U, the self-cleavage was determined as 1.

For A26U G30C C45G, the self-cleavage is 0.12.

A25G G44C C46U: the self-cleavage stood at 0.1.

As for G27C C31A G35C, the self-cleavage stood at 0.02.

In the case of G27A G30A G36A C37U G40C, the self-cleavage was 0.3.

For the variant A25U G27U G29C, the self-cleavage came out at 0.21.

As for A26U G33A A39U, the self-cleavage was 0.04.

On to A26G G36C C37G A41C, for which the self-cleavage came to 0.05.

For G27A G29C A39G, the self-cleavage was 0.02.

A26U U32C G40C: the self-cleavage stood at 0.01.

Turning to G27A U34C C37A, the self-cleavage worked out at 0.04.

For the variant G27C G36C G40U, the self-cleavage is 0.04.

With A26G G30U U43A C45G, the self-cleavage is 0.07.

For A26U C31A C45A, the self-cleavage worked out at 0.09.

Turning to A25U C37G U38G A41C C45G, the self-cleavage worked out at 0.01.

With G27C G29C U43C, the self-cleavage is 0.02.

Consider A26U U28G G29U U34C, for which the self-cleavage turned out to be 0.17.

For the variant A26C G29A G30U G40A, the self-cleavage worked out at 0.09.

Consider G27A C31U G33A G36A, for which the self-cleavage was found to be 0.02.

On to A26C G30A U32C, for which the self-cleavage worked out at 0.18.

G27C G33A C45U: the self-cleavage was determined as 1.33.

Take G27C G33A C45A: the self-cleavage is 0.05.

In the case of G27C G33C G35A, the self-cleavage stood at 0.05.

For A26U G35A C42A, the self-cleavage turned out to be 0.01.

Turning to A26C G27C U34C, the self-cleavage was 0.01.

On to A25G U43A G44U, for which the self-cleavage is 0.22.

Consider A26C G29A G40C, for which the self-cleavage stood at 0.06.

G27C U32C C46U: the self-cleavage amounted to 0.45.

Consider A26G C31G C45U, for which the self-cleavage was determined as 0.1.

For G27A G30A C37A, the self-cleavage came to 0.04.

For the variant G27A G30U U38G A39G C46A, the self-cleavage was found to be 0.01.

For G27A C31U C37U U43C, the self-cleavage was 0.07.

A26G G35C C46A: the self-cleavage worked out at 0.05.

For the variant G27A C31G C42U, the self-cleavage is 0.08.

Turning to A26C G27U G36C, the self-cleavage was 0.07.

As for A26C C31U U32C U34G G44C, the self-cleavage is 0.1.

Consider A25G U34C C42G, for which the self-cleavage came to 0.02.

As to A26G G36C G40U, the self-cleavage stood at 0.05.

Take G27A U32C G40U: the self-cleavage was found to be 0.12.

In the case of G27A G29C C42A, the self-cleavage worked out at 0.08.

Take A26U G36C G40A: the self-cleavage was found to be 0.04.

For the variant A26G C31U U32A G35C C37G, the self-cleavage turned out to be 0.12.

A26U U28C G44A C45G: the self-cleavage came to 0.05.

For A25U A26G U32A C46G, the self-cleavage came out at 0.05.

With A25G U32G U34A C42U, the self-cleavage was found to be 0.03.

In the case of A26C C31A G40A, the self-cleavage amounted to 0.06.

As to G27C U32G A39C, the self-cleavage came out at 0.05.

Regarding G27C G29A C46A, the self-cleavage is 0.08.

As for A26C G33C C37A A39G, the self-cleavage came to 0.01.

On to A26U G29A A41U, for which the self-cleavage was found to be 0.33.

Consider A25G U38C A39G, for which the self-cleavage worked out at 0.14.

For A25U G33A A39U, the self-cleavage was found to be 0.03.

In the case of A25U G33A A39G, the self-cleavage is 0.06.

For A26C C31A G33A G36C A41U, the self-cleavage came out at 0.02.

As for A26G C37G G44A, the self-cleavage was 0.01.

As to A26C G27C U28A, the self-cleavage was determined as 0.18.

As to G27C A41G G44A, the self-cleavage is 0.04.

Consider A25U U28G G44U, for which the self-cleavage was 0.54.

As for A26U C31U U38C C45G, the self-cleavage turned out to be 0.02.

As to A26C U34G C42A, the self-cleavage turned out to be 0.03.

In the case of G27A G40A C42A, the self-cleavage came to 0.04.

In the case of G27A G29U G35A, the self-cleavage came to 0.18.

Turning to A26U G27U G40C, the self-cleavage came to 0.15.

For A26G A41G C42U, the self-cleavage was 0.12.

With A26C G33U G36U U43G, the self-cleavage was 0.

As to G27A C45G C46G, the self-cleavage stood at 0.42.

Regarding A25U C31A G36C, the self-cleavage turned out to be 0.04.

With G27C C37G C45G, the self-cleavage stood at 0.02.

Take A25U A26G U28G C42A: the self-cleavage came out at 0.04.

For A25U G30U C42A, the self-cleavage is 0.08.

Consider A26G G30A U43A, for which the self-cleavage turned out to be 0.17.

These data come from the RNAGym collection of RNA variant scans (doi:10.7554/elife.90254).
